The results in this text go back to ChEMBL document CHEMBL1201862, “PubChem BioAssay data set” (2004).

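Following 48 hours of exposure in 96-well plates, responses at five concentrations were used to interpolate endpoints linearly. The concentration for 50% growth inhibition is given as GI50.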 Calls of active or inactive are those of the source. Rule as the data show it: active = GI50 up to about 1.1 µM and inactive = higher. Where only a bound is given, the exact number is not on record here.

The test system of the assay is NCI-H322M. Briefly: growth of human tumour cells (NCI), 48 h.
Take `Cc1nc(-n2nc(-c3ccccc3)cc2-c2ccccc2)sc1C(=O)/C=C/c1cccc([N+](=O)[O-])c1`: the GI50 was inactive: 21.6 µM.

Take `CC(C)CCCCCCCCCCCCC(=O)NCC(=O)NC1C(O)C(O)C(Nc2[nH]cnc3ncnc2-3)OC1C(O)CO` (configuration not stated): the GI50 is active: 0.00169 µM.

Take `CCC1(CC)C(=O)NC(=O)NC1=S`: the GI50 was inactive: > 100 µM.

`COC(=O)C1=C(C(=O)OC)C2OC1c1cc3ccccc3cc12`: the GI50 was inactive: 19.4 µM.

In the case of `NC(=S)SCCC(=O)O`, the GI50 is inactive: > 100 µM.

On to `CCOc1ccc(/N=N/c2ccc(-c3ccc(/N=N/c4c(O)ccc5cc(S(=O)(=O)O)cc(S(=O)(=O)O)c45)cc3)cc2)cc1`, for which the GI50 is inactive: > 100 µM.

Regarding `COCCOC(=O)C1=C(O)c2ccccc2S(=O)(=O)N1C`, the GI50 was inactive: > 100 µM.

Regarding `CCCNc1c(Cl)cc(Cl)c2[nH]c3ccccc3c(=O)c12`, the GI50 was inactive: 83.6 µM.

For `CN(C)C(=O)Oc1ccc(C(=S)Nc2ccccc2)cc1`, the GI50 was inactive: > 100 µM.

Take `COc1nc2c(c(=O)n1C)N[C@@H]1[C@@H](O)[C@H](O)CO[C@@H]1N2`: the GI50 was inactive: > 100 µM.

On to `CC1=C(C(=O)NNC(=O)c2ccccc2O)CC(C(=O)NNC(=O)c2ccccc2O)=C(C)N1`, for which the GI50 is inactive: 6.35 µM.

As to `COc1c(Br)cc2ccccc2c1-c1c(OC)c(Br)cc2ccccc12`, the GI50 was inactive: > 100 µM.

Consider `COC(OC)c1cc2c(cc1C(=O)[C@@]13CCC[C@@H]1NC(=O)O3)OCO2`, for which the GI50 was inactive: > 100 µM.

Take `O=[N+]([O-])c1cccc(C2=NOC3C4CCC(C4)C23)c1` (configuration not stated): the GI50 was inactive: > 100 µM.

`Cc1ccc(C2=NN=C3C(c4ccccc4)=Nc4ccccc4N3C2)cc1`: the GI50 is inactive: 20.7 µM.

As to `CN(C)CCNC(=O)c1ccc2ccc3cccnc3c2n1`, the GI50 is inactive: 9.51 µM.

Take `COc1ccc(N2C(=O)CSC2c2cc(OC)c(OC)c(OC)c2)cc1` (configuration not stated): the GI50 was inactive: 25.1 µM.

As to `C=CCOC(=O)N1c2ccc(O[Si](C)(C)C(C)(C)C)cc2[C@@]23O[C@@]24[C@@H]1C#C/C=C\C#C[C@]3(O)C(OC)(OC)C[C@@H]4C`, the GI50 is inactive: > 100 µM.

With `COc1ccc(N[C@H](C[S+]([O-])c2ccc(C)cc2)c2ccc(F)cc2)cc1` (some centres not stated), the GI50 is inactive: > 100 µM.

Regarding `CCOC(=O)Cn1c2ccccc2c(=O)c2cc(C)c(C)c(C#N)c21`, the GI50 was inactive: > 100 µM.

In the case of `CCOC(=O)Cc1nc2ccc3c(c2nc1O)C(=O)c1ccccc1C3=O`, the GI50 was inactive: 33.1 µM.

For `CCc1cc2c(Nc3ccccc3)c3c(nc2s1)CCCC3`, the GI50 was inactive: > 100 µM.

Regarding `O=c1c(Nc2ccccc2)cn(CCOc2ccccc2)c(=O)n1CCOc1ccccc1`, the GI50 was inactive: > 100 µM.

Regarding `Cn1c2c(c3ccccc31)CCN(CCCCN1CCc3c(n(C)c4ccccc34)C1=O)C2`, the GI50 is inactive: > 100 µM.

In the case of `CCc1n[nH]c(=O)n1/N=C/c1ccc(C)cc1`, the GI50 is inactive: 64 µM.

For the compound `CCC(C)(O)c1cn(-c2ccc(Cl)cc2)nn1` (configuration not stated), the GI50 was inactive: > 100 µM.

For `Cc1ccc(NC(=O)c2cc(S(=O)(=O)Nc3n[nH]c(=O)[nH]3)c(SSc3cc(Cl)c(C(=O)Nc4ccc(C)cc4)cc3S(=O)(=O)Nc3n[nH]c(=O)[nH]3)cc2Cl)cc1`, the GI50 is inactive: > 100 µM.

On to `O=[N+]([O-])c1cccc(/C=N\NS(=O)(=O)c2ccc(Cl)cc2)c1O`, for which the GI50 is inactive: > 100 µM.

As to `NC(=S)N/N=C/c1cn(CCCl)c2ccccc12`, the GI50 is inactive: 63.8 µM.

For `CC(C)(C)OC(=O)NC(Cc1ccccc1)NC(=O)NC(=O)OCc1ccccc1` (configuration not stated), the GI50 is inactive: 32.7 µM.

`CN(C)c1ccc(/C=C(\NC(=O)c2ccccc2)c2nc3cncnc3[nH]2)cc1`: the GI50 was inactive: > 100 µM.

For the compound `COC(=O)c1c/c(=N\NC(=O)CC(=O)Nc2ccccc2OC)c2ccccc2o1`, the GI50 was inactive: > 100 µM.

Regarding `COC(=O)C(=O)C(/C(=N/N)C(=O)Nc1ccccc1C(N)=O)c1nc2ccc([N+](=O)[O-])cc2nc1O` (configuration not stated), the GI50 is inactive: > 100 µM.

On to `CCCC1C(=O)Nc2cccc3ncn(c23)C1=O` (configuration not stated), for which the GI50 is inactive: > 100 µM.

For `O=c1cc(CO)n(CCc2c[nH]c3ccccc23)cc1O`, the GI50 was inactive: 27.9 µM.

Take `COc1cccc(/N=C/c2cc(OC)c(OC)c(OC)c2)c1`: the GI50 was inactive: > 100 µM.

For `CC(=O)C1(C)CC(C#N)(C#N)C(C#N)=C1N` (configuration not stated), the GI50 was inactive: > 100 µM.

As to `Oc1nc2cc(Cl)ccc2nc1/C(=N\Nc1ccccc1)C(O)c1ccc2c(c1)OCO2` (configuration not stated), the GI50 is inactive: > 100 µM.

Consider `Cc1nc2cc3ccccc3cc2[nH]c1=O`, for which the GI50 was inactive: > 100 µM.

As for `COC1(OC)C=CC(=O)C=C1`, the GI50 was inactive: 16.4 µM.

In the case of `CCc1cc2c(c3c1CCCC3=O)CC1(Cc3ccc(C(=O)OC)cc3C1)C2` (configuration not stated), the GI50 is inactive: 73.1 µM.

With `COC(=O)C1(Cc2ccccc2)Cc2ccccc2C1`, the GI50 is inactive: 48.5 µM.

In the case of `O=C1c2ccc3ccccc3c2CCC1N1CCCCC1` (configuration not stated), the GI50 was inactive: 15.5 µM.

Regarding `OC(c1ccc(F)cc1)C(F)(F)c1nc(-c2ccccc2)no1` (configuration not stated), the GI50 is inactive: 49.8 µM.

For the compound `CC1=NN(C(=O)CC(=O)Nc2cccc(C)c2)C(=O)C1/N=N/c1ccc(S(=O)(=O)CCOS(=O)(=O)O)cc1` (configuration not stated), the GI50 was inactive: 11.9 µM.

Regarding `O=[N+]([O-])c1cccc(C2ON2C2CCCCC2)c1` (configuration not stated), the GI50 was inactive: 34 µM.

With `COC(=O)/C=C1/SC(/C(=C(/[O-])OC)[n+]2ccc3ccccc3c2)=NC1=O`, the GI50 was inactive: > 100 µM.

Take `O=P(O)(O)C(N=C(Nc1ccccc1)Nc1ccccc1)P(=O)(O)O`: the GI50 is inactive: > 100 µM.

In the case of `COc1ccc2c(O)c(Oc3ccc(Cl)cc3)c(=O)oc2c1`, the GI50 was inactive: > 100 µM.

On to `N#Cc1ccccc1NC(=O)C(=O)C(C(=O)c1ccncc1)C1OC(=O)c2ccccc21` (configuration not stated), for which the GI50 is inactive: > 100 µM.

Take `COc1ccc2cc(CNCCCN3CCN(CCCNCc4ccc5cc(OC)ccc5c4)CC3)ccc2c1`: the GI50 was inactive: 1.75 µM.

With `COc1ccc(C(c2ccc(OC)cc2)N2C(=O)CCC2C(=O)O)cc1` (configuration not stated), the GI50 was inactive: > 100 µM.

In the case of `COc1ccc(C)cc1N1C(=O)C2ON(Cc3ccc(CC(N)=O)cc3)C(c3c4ccccc4c(Cl)c4ccccc34)C2C1=O` (configuration not stated), the GI50 is inactive: 41.2 µM.

For `COC(=O)C1(Cc2cccc(C)c2)Cc2c(C)cccc2C1=O` (configuration not stated), the GI50 is inactive: > 100 µM.

Consider `N[C@H](C(=O)O)[C@@H]1CC(Br)=NO1`, for which the GI50 is inactive: > 100 µM.

Take `Cc1c(C(C)C)cc(OCCO)cc1C(C)C`: the GI50 was inactive: 83.6 µM.

`CCOC(=O)CO/N=C1/C(=C2/C(=O)Nc3ccccc32)Nc2ccccc21`: the GI50 was inactive: 2.96 µM.

Take `CCCCc1c2c(nc3c1CCc1cc4c(nc1-3)-c1nc3c(c(CCCC)c1CC4)CCC/C3=C\c1ccccc1)/C(=C/c1ccccc1)CCC2`: the GI50 was inactive: 75.2 µM.

Take `Fc1cccc2c1cc1ccc3cccc4ccc2c1c34`: the GI50 was inactive: > 100 µM.

With `C=CC1(c2ccc(-c3ccccc3)cc2)OCCO1`, the GI50 was inactive: 30.8 µM.

As to `COc1ccc2oc3c4c2c1CCC4CCC3=O` (configuration not stated), the GI50 is inactive: > 100 µM.

Turning to `CS(=O)(=O)c1ccc(NNc2cc(=O)[nH]c(=O)[nH]2)cc1`, the GI50 was inactive: > 100 µM.

Regarding `C/C=C/[C@H]1O[C@@](OC)([C@@H](C)[C@H](O)[C@H](C)[C@H]2OC(=O)/C(OC)=C/C(C)=C/[C@@H](C)[C@@H](O)[C@@H](C)[C@@H](O)[C@H](C)C/C(C)=C/C=C/[C@@H]2OC)CC(OC2CC(O)C(OC(N)=O)C(C)O2)[C@@H]1C` (some centres not stated), the GI50 is inactive: 6.24 µM.

For the compound `COC(=O)C(C(=O)C(=O)Nc1ccccc1C)c1nc2ccc([N+](=O)[O-])cc2nc1O` (configuration not stated), the GI50 was inactive: > 100 µM.

On to `O=C1Cc2nc(CO)c(CO)c(CO)c2CO1`, for which the GI50 is inactive: > 100 µM.

Turning to `CC1OC(n2ccc(=O)[nH]c2=O)C=C(OC(=O)c2ccccc2)C1=O` (configuration not stated), the GI50 is inactive: > 100 µM.

Take `COc1cc(S(=O)(=O)Nc2nc(-c3ccc(N4C(=O)/C(=C/c5ccccc5[N+](=O)[O-])N=C4c4ccccc4)cc3)cs2)ccc1Cl`: the GI50 is inactive: 95.1 µM.

Regarding `O=C(CC(O)(C(F)(F)F)C(F)(F)Cl)CC(O)(C(F)(F)F)C(F)(F)Cl` (configuration not stated), the GI50 is inactive: 2.66 µM.

As to `Cc1c(-c2c(C)c3ccccc3n2S(=O)(=O)c2ccccc2)n(S(=O)(=O)c2ccccc2)c2ccccc12`, the GI50 is inactive: > 32.9 µM.

For the compound `N#Cc1nc(/C=C/c2nc(C#N)c(N)o2)oc1N`, the GI50 is inactive: > 10 µM.

On to `Cc1ccc(C2=C(c3ccccc3)C(O)(c3ccccc3)C(c3ccccc3)=C2c2ccc(C)cc2)cc1`, for which the GI50 was inactive: > 100 µM.

On to `CC(C)(C=O)CC(C#N)/C(=N\NC(N)=O)C(=O)Nc1ccccc1C(N)=O` (configuration not stated), for which the GI50 was inactive: > 100 µM.

Take `CCOC(=O)Cn1c(=O)[nH]c(=O)c2c1ncn2Cc1ccccc1`: the GI50 was inactive: > 100 µM.

Turning to `C/C=C/COC(=O)CO[N+](=O)[O-]`, the GI50 was inactive: > 100 µM.

Consider `COC(=O)c1ccc(/C=C/c2cc(O)ccc2O)cc1`, for which the GI50 was inactive: 8.09 µM.

For `CCOC(=O)CCCn1cc(C(=O)OC)nn1`, the GI50 was inactive: > 100 µM.

Regarding `COC1=C2CC(C)CC(OC)[C@@H](OC(=O)CCN)[C@H](C)/C=C(\C)C(OC(N)=O)C(OC)/C=C\C=C(/C)C(=O)NC(=CC1=O)C2=O` (some centres not stated), the GI50 was inactive: 16.6 µM.

As to `Nc1nnc(O)c2c1c(I)cn2C1OC(CO)C(O)C1O` (configuration not stated), the GI50 is inactive: 2.29 µM.

`COc1cccc(-c2cc(O)c3cc4c(cc3n2)OCO4)c1`: the GI50 was inactive: 3.03 µM.

On to `COc1cc2c(SCCN(C)C)nc3ccccc3c2c2ccccc12`, for which the GI50 was inactive: 1.65 µM.

With `c1csc(-c2nccc3c2[nH]c2ccccc23)c1`, the GI50 is inactive: 31.7 µM.

As for `COc1ccc(/C=C\c2cc(OC)c(OC)c(OC)c2)cc1`, the GI50 was active: 0.000443 µM.
